Data from PubChem BioAssay AID1461 (National Center for Advancing Translational Sciences (NCATS), 2008).
Hit rate of the full screen: of about 220,000 compounds, about 2,300 (1%) were called active. The shares of active, inactive and inconclusive entries below differ from those in the screen. The call rests on the fitted dose curve; in most records, active means well fitted inhibition curve with a large enough effect; inconclusive means small, poorly fitted or top-dose-only effect, or effect the other way; inactive means no such curve, though single readings can be large or run the other way. No potency is given beside an inconclusive call; the fits are too rough.

Biological target: Neuropeptide S receptor (Homo sapiens) (UniProt Q6W5P4)
UniProt Q6W5P4, sequence (Q6W5P4 whole entry, looked up): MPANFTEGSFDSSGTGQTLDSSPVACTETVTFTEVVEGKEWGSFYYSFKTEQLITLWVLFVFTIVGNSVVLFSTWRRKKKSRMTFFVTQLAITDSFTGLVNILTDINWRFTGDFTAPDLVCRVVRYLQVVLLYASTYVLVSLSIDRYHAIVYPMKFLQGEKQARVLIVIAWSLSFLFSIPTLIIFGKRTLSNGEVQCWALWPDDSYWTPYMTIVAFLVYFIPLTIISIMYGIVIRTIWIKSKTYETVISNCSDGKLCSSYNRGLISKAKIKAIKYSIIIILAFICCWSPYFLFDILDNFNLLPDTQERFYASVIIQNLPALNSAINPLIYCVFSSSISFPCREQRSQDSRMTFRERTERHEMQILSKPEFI
Assay: qHTS Assay for Antagonists of the Neuropeptide S Receptor: cAMP Signal Transduction; further: nearly all actives have a fitted effect of over 50% in size
Conditions: CHO-NPSR cells, cAMP TR-FRET, antagonist mode; series mostly up to 38.3 µM
Potency means the concentration at half of the fitted maximal effect; tags describe the fitted curve by direction and shape.

| Compound | Potency |
| --- | --- |
| CC(C)[C@H](NC(=O)c1ccc(Cl)c([N+](=O)[O-])c1)C(=O)NCc1ccc(F)cc1 | inconclusive [inhibitor, partial curve, poor fit] |
| Cc1ccc(Cn2nnc3c(=O)[nH]c(C4CCN(S(=O)(=O)c5cc(C)ccc5C)CC4)nc32)cc1 | inconclusive [inhibitor, partial curve] |
| CCc1ccc(C(=O)Cn2ncc(Cl)c(Cl)c2=O)cc1 | inconclusive [inhibitor, partial curve] |
| O=C(COc1ccc2ccccc2c1)NCCNC(=O)COc1ccc2ccccc2c1 | inconclusive [inhibitor, single point] |
| Cc1ccc(SCc2c(-c3ccccc3)nn(C)c2Cl)cc1 | inactive |
| C/C(=N\NC(=S)Nc1c(C)cccc1C)c1cc2ccccc2o1 | inactive |
| COc1ccc2nc(NC(=O)c3cccc(-c4cc5ccccc5oc4=O)c3)sc2c1 | inconclusive [inhibitor, single point] |
| CCOC(=O)c1sc(NC(=O)CSc2n[nH]c(-c3ccc(Cl)cc3Cl)n2)c(C#N)c1C | inactive |
| COC(=O)c1cccc(Nc2cc(C)nc(-c3ccccc3O)n2)c1 | inconclusive [inhibitor, single point] |
| CN(C)CCCN1c2ccccc2CCc2ccc(Cl)cc21 | inconclusive [inhibitor, partial curve] |
| C=CCn1c(SCc2cc(=O)n3ccsc3n2)nc2scc(C3CC3)c2c1=O | inconclusive [inhibitor, single point] |
| Cn1c(C(=O)Nc2ccc3c(c2)OCO3)cc2c(=O)n(C)c3ccccc3c21 | inconclusive [inhibitor, single point] |
| Cc1cccc(N2CCN(c3cccc(C)c3)C2c2cccnc2)c1 | inconclusive [inhibitor, partial curve] |
| COc1ccc(NC2=NCC(Cc3ccc(Br)cc3)S2)cc1 (stereo not drawn) | inactive |
| O=C1C=Cc2ccccc2/C1=C/c1[nH]c(=O)[nH]c1O | inactive |
| Cc1nn(Cc2c(F)c(F)c(F)c(F)c2F)c(C)c1NC(=O)c1ccc(COc2ccccc2Cl)o1 | inconclusive [inhibitor, partial curve] |
| Cc1ccc(C)c2nc(N3CCCC3)c(C#N)cc12 | inconclusive [inhibitor, single point] |
| Cc1ccccc1CN1C(=O)C(O)(CC(=O)c2ccncc2)c2ccccc21 (stereo not drawn) | inconclusive [activator, single point] |
| O=C1NC2(CCCc3ccccc32)C(=O)N1CCOc1ccc(Br)cc1 (stereo not drawn) | inactive |
| CC(C)(C)C(=O)CSc1ncnc2c1cnn2-c1ccccc1 | inactive |
| O=C(NCC(c1cccnc1)N1CCN(c2ccccc2F)CC1)c1cccc(Cl)c1 (stereo not drawn) | inconclusive [inhibitor, single point] |
| COC(=O)c1ccc(Oc2coc3cc(OCc4cnn(-c5ccccc5)c4)ccc3c2=O)cc1 | inconclusive [inhibitor, partial curve] |
| CC(C)(C)c1ccccc1OCCOCCSc1ncccn1 | inconclusive [inhibitor, single point] |
| COc1cccc(NC(=O)C2C3CCC4C(CCC32)C4(Cl)Cl)c1 (stereo not drawn) | inactive |
| O=C(Sc1cccc2cccnc12)c1ccc(F)cc1 | inconclusive [inhibitor, full curve, poor fit] |

| Compound | Potency |
| --- | --- |
| Cc1ccc(NNc2c(C)nc3ccccc3nc2=O)cc1 | inactive |
| Clc1ccc(N/N=C/c2cccnc2)cc1 | inactive |
| O=P(/C(=N/O)Sc1ccccc1)(N1CCOCC1)N1CCOCC1 | inactive |
| Cc1[nH]c2ccc(Br)cc2c(=S)c1C/C=C/Cl | inconclusive [inhibitor, single point] |
| O=c1[nH]nc(SCc2ccccc2Cl)n1-c1ccc2c(c1)OCCO2 | inactive |
| Cc1ccc(C2(C)NC(=O)N(CC(=O)NC(=O)NCCC(C)C)C2=O)cc1 (stereo not drawn) | inactive |
| CC1(C)CC(Cc2nc(=S)[nH][nH]2)C(=O)O1 (stereo not drawn) | inactive |
| CCOC(=O)N1CCc2c(sc(NC(=O)c3ccc(S(=O)(=O)N4CCCC4)cc3)c2C#N)C1 | inconclusive [inhibitor, single point] |
| S=c1nc[nH]c2c1sc1nc(-c3ccccc3)c3c(c12)CCCC3 | inactive |
| COC(=O)c1cccc(NC(=O)c2ccccc2)c1 | inactive |
| CC1(C(=O)OCC(=O)N2c3ccccc3Sc3ccccc32)CC1(Cl)Cl (stereo not drawn) | inconclusive [inhibitor, single point] |
| CC(C)C[C@H](NC(=O)c1nc[nH]c1C(=O)N[C@@H](CCCCNC(=O)OC(C)(C)C)C(=O)OC(C)(C)C)C(=O)OC(C)(C)C | active: 10 µM |
| CCN(CC)CCCC(C)Nc1c2ccc(Cl)cc2nc2ccc(OC)cc12 (stereo not drawn) | active: 10 µM |
| COC(=O)c1[nH]c2ccc(C)cc2c1NC(=O)CN1CCCc2ccccc21 | inconclusive [inhibitor, full curve, poor fit] |
| CCn1c2ccccc2c2cc(CN3CCN(C(=O)c4ccco4)CC3)ccc21 | inconclusive [inhibitor, full curve, poor fit] |
| Cn1cc([N+](=O)[O-])c(C(=O)Nc2ccc3nc(-c4ccccc4)[nH]c3c2)n1 | inactive |
| S=c1c2c(nc3nc[nH]n13)CCC2 | inconclusive [activator, full curve] |
| Oc1ccc(NCc2cccc(OCc3ccccc3)c2)cc1 | inactive |
| CCN(CC)C(=O)CSc1nc(N)c2c3c(sc2n1)CC(C)CC3 (stereo not drawn) | inconclusive [inhibitor, single point] |
| Cc1ccc(-n2c([O-])nc(-[n+]3ccccc3)c2C=O)cc1 | inactive |
| CCCCOC(=O)Cn1c(=O)c2c(nc(Br)n2Cc2ccccc2)n(C)c1=O | inconclusive [inhibitor, partial curve, poor fit] |
| COc1cccc(CNC(=O)c2cc3c(C)nc4ccccc4c3o2)c1 | inactive |
| COc1cc(C(=O)Nc2nc(-c3cccs3)cs2)cc(OC)c1OC | inconclusive [inhibitor, single point] |
| Cc1nn(C)c(C)c1CN(C)C(=O)c1cnn2c1NC(c1ccccc1)CC2C(F)(F)F (stereo not drawn) | inconclusive [inhibitor, single point] |
| CCOc1ccccc1-c1nc(C(N)=O)c2[nH]c(=O)n(-c3cccc(C)c3)c2n1 | inconclusive [inhibitor, single point] |

| Compound | Potency |
| --- | --- |
| CCN(CC)c1ccc(/C=N/NC(=O)c2ccoc2C)cc1 | inconclusive [inhibitor, single point] |
| Cc1nn(C)cc1C(C(=O)NC1CCCCC1)N(C(=O)Cc1cccs1)c1ccc(C(C)C)cc1 (stereo not drawn) | inconclusive [inhibitor, single point] |
| C/C=C1\C(=O)CC2C3CCC4=CC(=O)CC[C@]4(C)C3CC[C@]12C (stereo partly drawn) | inconclusive [inhibitor, partial curve] |
| O=C(Nc1cccc(Cl)c1)Nc1ccccc1C(=O)NCc1ccco1 | inconclusive [inhibitor, single point] |
| CCN1CCCC1CNC(=O)CSc1cc(=O)n(C)c2cc(Cl)ccc12 (stereo not drawn) | inconclusive [inhibitor, partial curve] |
| Cn1c(SCC(=O)N2c3ccccc3CCc3ccccc32)nnc1-c1cc2ccccc2cc1O | inconclusive [inhibitor, partial curve] |
| Cn1c(=O)c2c(nc(CN3CCN(C(=O)c4ccco4)CC3)n2Cc2ccccc2)n(C)c1=O | inactive |
| Cn1c(=O)[nH]c(=O)c2c1nc(SCCN1CCCCC1)n2CCCc1ccccc1 | inactive |
| CC(=O)c1ccc(-c2ccc(C(=O)NC3CCCCCC3)o2)cc1 | inconclusive [inhibitor, single point] |
| CC1(C)NC(C)(C)c2nonc2/C1=N\O | inactive |
| O=C(CSc1nc2ccccc2c(=O)n1NC(=O)c1ccccc1)c1ccc(Cl)cc1 | inconclusive [inhibitor, single point] |
| COc1ccc2nc(NC(=S)NC(=O)c3ccco3)sc2c1 | inactive |
| CCCn1c2ccccc2c2nnc(SCC(=O)Nc3nnc(CC(=O)OCC)s3)nc21 | inconclusive [activator, single point] |
| O=C(NCCCN1CCN(c2ccccc2F)CC1)Nc1ccc(F)cc1 | inconclusive [inhibitor, single point] |
| CCCCOc1ccc(C(O)(CC)CCN2CCOCC2)cc1 (stereo not drawn) | inactive |
| Cc1nc(SCC(=O)NC(C)(C#N)C2CC2)c2c(-c3cccs3)csc2n1 (stereo not drawn) | inactive |
| N#CCc1ccc(NC(=O)/C=C/c2ccc([N+](=O)[O-])o2)cc1 | active: 6.31 µM |
| Cc1ccc(NC(=O)c2cc(C(C)(C)C)nn2Cc2ccccc2)cc1 | inconclusive [activator, single point] |
| Cc1ccc(-c2cc(C(=O)NCc3cnn(C)c3C)c3cc(Br)ccc3n2)cc1 | inconclusive [inhibitor, single point] |
| O=[N+]([O-])c1cc2c(cc1/C=N\NS(=O)(=O)c1ccccc1)OCO2 | inactive |
| COc1ccc(NS(=O)(=O)c2ccc3oc4ccccc4c3c2)cn1 | inactive |
| CC(CCN(C)C)OC(=O)c1ccc(C(C)c2ccccc2)o1 (stereo not drawn) | inactive |
| CCN(CC)CCn1c(SCC(=O)NCc2ccccc2)nc2c(sc3ccccc32)c1=O | inconclusive [inhibitor, single point] |
